Laboratory results published in PubChem BioAssay (NCI).
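Tested at 5 concentrations; 48 h exposure; 96-well plates; endpoints linearly interpolated, else capped at highest concentration. GI50 marks 50% less growth. Definition used: TGI = concentration required for complete inhibition of growth.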 Peptide text beside a SMILES is read from it. * marks the point of attachment. Pentanoyl = CCCCC(=O)*; Boc = CC(C)(C)OC(=O)*

Tested on: NCI-H322M lung
Assay: NCI anticancer screen, dose series, 48 h

Row | SMILES | TGI [µM] | GI50 [µM]
1 | COc1ccc2c3c(n(Cc4ccccc4)c(=O)c2c1)-c1cc(OC)c(OC)cc1C3C (stereo not given) | > 100 | –
2 | CN=C(NC#N)NCCSCc1nc[nH]c1C | > 100 | –
3 | O=S(=O)(O)c1ccc(-c2nnc(-c3ccccn3)nc2-c2ccc(S(=O)(=O)O)o2)o1 | > 100 | –
4 | C=C1CCCCCCCCCCC12SCCC2CCCCSC (stereo not given) | 62.1 | –
5 | O=C(c1ccc2ccccc2c1)N(Cc1cccnc1)C(=S)N(Cc1cccnc1)C(=O)c1ccc2ccccc2c1 | > 100 | –
6 | O=C1c2ccccc2-c2c1c(-c1ccc([N+](=O)[O-])cc1)nc1ccc3ccccc3c21 | > 100 | –
7 | N/C(=N\N=C\c1c[nH]c2cc(C(F)(F)F)ccc2c1=O)NO | > 10 | –
8 | O=C(CSC(c1ccccc1)c1ccccc1)N/N=C/c1cccc(Cl)c1 | 41.1 | 20.4
9 | OCC1OC(OCC(O)C(O)C(O)C(/C=N/Nc2ccccc2)=N/Nc2ccccc2)C(O)C(O)C1O (stereo not given) | > 100 | –
10 | CCCCC(=O)Oc1ccc(CC(NC(=O)OC(C)(C)C)C(=O)NC(C)C(=O)NC(Cc2ccccc2)C(=O)NCC(N)=O)cc1 (stereo not given) (Boc-Y(Pentanoyl)AFG-NH2; configuration not given here) | 42.6 | –
11 | CC(C)(C#N)c1cc(F)cc(C(=O)Nc2cc(Nc3ncccc3-c3ncnc4nc[nH]c34)ccc2F)c1 | > 10 | 1.83
12 | COc1ccc(C(=O)C(C(=O)C(=O)Nc2ccc(Cl)c(Cl)c2)c2ccc(OC)cc2)cc1 (stereo not given) | > 100 | –
13 | O=C1C2=Nc3ccccc3C(O)N2c2ccccc21 (stereo not given) | > 100 | –
14 | Cc1cc(=O)[nH]o1 | > 100 | –
15 | CCCCCCCCCCCCCCCC(=O)OCC1CCCN2CCCCC12 (stereo not given) | > 100 | –
16 | CC/C=C\C/C=C\C[C@H](O)C/C=C1/C(=O)C=C[C@@H]1C/C=C\CCCC(=O)O | 21.1 | 7.84
17 | CCCCCC(=O)Nc1nc[nH]c1C(N)=O | > 100 | –
18 | O=C(CF)N(O)c1ccc(/C=C/c2ccccc2)cc1 | > 100 | 6.38
19 | CN1CCN(Cc2ccc(NC(=O)c3cncc(C#Cc4cncc5ncccc45)c3)cc2C(F)(F)F)CC1 | 14.3 | 3.32
20 | CC(=O)C1=C(C)Cn2c(=O)c3ccccc3c(=O)n2C1 | > 100 | –
